This is one part of the list. Single values are uncertain, as repeats are few or missing.
Each molecule was assayed on IST-MEL1 (assay: cell count relative to DMSO control; melanoma cells; higher = more viable cells). Details: library dose: standard library concentration; 72 h; first compound 2 µM.
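Note: cells treated in 1,536-well plates, then fixed and DAPI-stained, with nuclei counted from automated high-throughput microscope images.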

SMILES	cell count [%]
C[C@@H](N)c1ccc(C(=O)Nc2ccnc3[nH]ccc23)cc1 + CCCCCCCCc1ccc(CCC(N)(CO)CO)cc1 [fingolimod] (partner dose 10 µM)	17
Cn1sc(=O)n(Cc2ccccc2)c1=O + C[C@]1(O)C[C@@H](c2nc(-c3ccc4ccc(-c5ccccc5)nc4c3)c3c(N)nccn32)C1 [OSI906] (partner dose 2 µM)	23.9
Cn1sc(=O)n(Cc2ccccc2)c1=O + NC(=O)c1ccc(N(C(N)=O)c2c(F)cccc2F)nc1-c1ccc(F)cc1F [VX702] (partner dose 2 µM)	103
C[C@@H](N)c1ccc(C(=O)Nc2ccnc3[nH]ccc23)cc1 + Cn1cnc2c(F)c(Nc3ccc(Br)cc3Cl)c(C(=O)NOCCO)cc21 [selumetinib] (partner dose 0.075 µM)	74.8
CCCCCCCCCCCCCCCCCCOP(=O)([O-])OC1CC[N+](C)(C)CC1 [Perifosine] + CC(C)C[C@H](NC(=O)[C@H](Cc1ccccc1)NC(=O)c1cnccn1)B(O)O [Bortezomib] (partner dose 0.005 µM)	14.9
C[C@@H](N)c1ccc(C(=O)Nc2ccnc3[nH]ccc23)cc1 + CNC(=O)c1cc(Oc2ccc(NC(=O)Nc3ccc(Cl)c(C(F)(F)F)c3)cc2)ccn1 [sorafenib] (partner dose 2 µM)	85.8
CCCCCCCCCCCCCCCCCCOP(=O)([O-])OC1CC[N+](C)(C)CC1 [Perifosine] + C[C@]1(O)C[C@@H](c2nc(-c3ccc4ccc(-c5ccccc5)nc4c3)c3c(N)nccn32)C1 [OSI906] (partner dose 2 µM)	86.7
CCCCCCCCCCCCCCCCCCOP(=O)([O-])OC1CC[N+](C)(C)CC1 [Perifosine] + NC1(c2ccc(-c3nc4ccn5c(=O)[nH]nc5c4cc3-c3ccccc3)cc2)CCC1 [MK2206] (partner dose 2 µM)	96.9
CCCCCCCCCCCCCCCCCCOP(=O)([O-])OC1CC[N+](C)(C)CC1 [Perifosine] + O=c1[nH]nc(Sc2ncc([N+](=O)[O-])s2)n1-c1ccc2c(c1)OCCO2 [BI78D3] (partner dose 1 µM)	102
C[C@@H](N)c1ccc(C(=O)Nc2ccnc3[nH]ccc23)cc1 + NC1(c2ccc(-c3nc4ccn5c(=O)[nH]nc5c4cc3-c3ccccc3)cc2)CCC1 [MK2206] (partner dose 2 µM)	72
CCCCCCCCCCCCCCCCCCOP(=O)([O-])OC1CC[N+](C)(C)CC1 [Perifosine] + Cc1cn(-c2cc(NC(=O)c3ccc(C)c(Nc4nccc(-c5cccnc5)n4)c3)cc(C(F)(F)F)c2)cn1 [nilotinib] (partner dose 1 µM)	120
Cn1sc(=O)n(Cc2ccccc2)c1=O + CN(c1ncccc1CNc1nc(Nc2ccc3c(c2)CC(=O)N3)ncc1C(F)(F)F)S(C)(=O)=O [PF562271] (partner dose 0.4 µM)	111
C[C@@H](N)c1ccc(C(=O)Nc2ccnc3[nH]ccc23)cc1 + C=C(c1ccc(C(=O)O)cc1)c1cc2c(cc1C)C(C)(C)CCC2(C)C [Bexarotene] (partner dose 10 µM)	92
CCCCCCCCCCCCCCCCCCOP(=O)([O-])OC1CC[N+](C)(C)CC1 [Perifosine] + Cc1cc(Nc2cc(N3CCN(C)CC3)nc(/C=C/c3ccccc3)n2)n[nH]1 [ENMD2076] (partner dose 0.2 µM)	115
C[C@@H](N)c1ccc(C(=O)Nc2ccnc3[nH]ccc23)cc1 + CN(NC(=O)CC(=O)NN(C)C(=S)c1ccccc1)C(=S)c1ccccc1 [STA4783] (partner dose 0.03 µM)	43
Cn1sc(=O)n(Cc2ccccc2)c1=O + COc1cc(Nc2ncc(F)c(Nc3ccc4c(n3)NC(=O)C(C)(C)O4)n2)cc(OC)c1OC [Tamatinib] (partner dose 2 µM)	72
CCCCCCCCCCCCCCCCCCOP(=O)([O-])OC1CC[N+](C)(C)CC1 [Perifosine] + OCc1c[nH]c2ccccc12 [Indole-3-carbinol] (partner dose 4 µM)	105
C[C@@H](N)c1ccc(C(=O)Nc2ccnc3[nH]ccc23)cc1 + CS(=O)(=O)CCNCc1ccc(-c2ccc3ncnc(Nc4ccc(OCc5cccc(F)c5)c(Cl)c4)c3c2)o1 [lapatinib] (partner dose 4 µM)	87.1
Cn1sc(=O)n(Cc2ccccc2)c1=O + O=C(O)c1ccc(-c2c[nH]c3ncc(-c4ccccc4)cc23)cc1C1CCCC1 [GSK650394] (partner dose 0.8 µM)	231
Cn1sc(=O)n(Cc2ccccc2)c1=O + Cn1nnc2c(C(N)=O)ncn2c1=O [temozolomide] (partner dose 10 µM)	84

Reference: the supplement of paper PMC4604168 (melanoma cell lines)
